In PubChem BioAssay (Tox21):
“And” between values parts separate entries of the source, which are not always exact repeats. Equal entries are not always repeated. Inconclusive means that the source gave no clear call. Such entries were picked first, then a sample of the others. Potencies of inconclusive entries are doubtful fits and often do not repeat. The source made the active and inactive calls. Calls come from the whole dose curve; as a rule, active = well fitted inhibition curve with a large enough effect in the signal ratio in the repeat runs (not every such curve was filed as active); inconclusive = weak or mixed curves, or effect the other way; inactive = no such curve, though single readings can be large or run the other way; the % refers to the signal ratio.

target: Peroxisome proliferator-activated receptor delta (Homo sapiens) (UniProt Q03181); test: qHTS assay to identify small molecule antagonists of the peroxisome proliferator-activated receptor delta (PPARd) signaling pathway (AID 743215); settings: HEK293H PPARd-UAS-bla, beta-lactamase FRET ratio, antagonist, 17 h; ratio activity, negative = inhibition: at 62 µM (top of the series) unless noted;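 note: cells stimulated with agonist L165041 at 300 nM final during compound exposure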
Chain of UniProt Q03181 (Q03181 whole entry, looked up): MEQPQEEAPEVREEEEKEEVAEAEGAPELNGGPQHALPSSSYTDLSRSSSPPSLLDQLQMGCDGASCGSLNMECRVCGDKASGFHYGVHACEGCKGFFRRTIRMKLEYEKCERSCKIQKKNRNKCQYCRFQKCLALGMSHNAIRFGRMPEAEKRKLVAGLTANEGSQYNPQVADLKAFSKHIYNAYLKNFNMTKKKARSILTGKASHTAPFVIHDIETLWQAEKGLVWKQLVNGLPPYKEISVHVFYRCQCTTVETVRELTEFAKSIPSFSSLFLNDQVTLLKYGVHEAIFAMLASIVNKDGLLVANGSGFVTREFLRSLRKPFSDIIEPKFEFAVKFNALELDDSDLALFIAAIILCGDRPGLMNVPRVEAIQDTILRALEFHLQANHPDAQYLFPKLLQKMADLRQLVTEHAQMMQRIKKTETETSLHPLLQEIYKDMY
Excerpt: U.S. Tox21 Program National Center for Advancing Translational Sciences [NCATS] NIH Chemical Genomics Center [NCGC] U.S. Environmental Protection Agency [EPA] National Institutes of Environmental Health Sciences [NIEHS] National Toxicology Program [NTP] U.S. Food and Drug Administration [FDA] Tox21 Assay Overview: The peroxisome proliferator-activated receptors (PPARs) are lipid-activated transcription factors of the nuclear receptor superfamily with three distinct subtypes namely PPAR alpha, PPAR delta (PPARd) and PPAR gamma. All these subtypes heterodimerizes with Retinoid X receptor (RXR) and have different physiological functions. […] To identify the compounds that inhibit PPAR-delta signaling, GeneBLAzer PPAR delta UAS-bla HEK293H cell line (Invitrogen, Carlsbad, CA, USA) containing a beta-lactamase reporter gene under the control of an Upstream Activator Sequence (UAS) was used to screen the Tox21 compound library.
Tox21 Assay Protocol Summary: PPARd-bla cells were dispensed at 3000 cells/5uL/well in 1536-well black wall/clear bottom plates using a Multidrop Combi (Thermo Fisher Scientific, Waltham, MA) dispenser. After the assay plates were incubated at 37 C and 5% CO2 for 5 h, 23 nL of compounds dissolved in DMSO, positive controls or DMSO only was transferred to the assay plate by a Pintool station (Kalypsys, San Diego, CA), followed by addition of 1ul L165041 (300 nM, final concentration in the wells). The assay plates were incubated at 37 C for 17 h, and then 1 uL of LiveBLAzerTM B/G FRET substrate was added using a Bioraptr Flying Reagent Dispenser (FRD) workstation (Beckman Coulter, Indianapolis, IN, USA). The assay plates were incubated at room temperature for 2 h and fluorescence intensity was measured by an Envision plate reader (PerkinElmer, Shelton, CT).
% is set by controls: 0 for no effect and ±100 for the full control effect; potency is the fitted concentration of half-maximal effect; tags give direction and shape of the fitted curve or compound fluorescence and quenching.

| Compound | ratio activity, negative = inhibition | Potency |
| --- | --- | --- |
| O=C(O)c1ccccc1Nc1cccc(C(F)(F)F)c1 | inconclusive: -35.1% |  |
| CC(=O)Oc1ccc(C(c2ccc(OC(C)=O)cc2)c2ccccn2)cc1 |  | inconclusive: 21.7 µM [fluorescent, partial curve] |
| C(=C/c1ccccc1)/c1ccccc1 |  | inactive |
| CCCCOCC(C)OCC(C)O (stereo not given) |  | inactive |
| O=S(=O)(O)c1ccc2nc(-c3ccccc3)[nH]c2c1 |  | inactive |
| CN(CC1(C)CCCO1)S(=O)(=O)c1ccc(Cl)c(S(N)(=O)=O)c1 (stereo not given) |  | inactive |
| O=C(O)C(c1ccc(Cl)cc1)c1ccc(Cl)cc1 | inconclusive: 20.3% |  |
| CCCCCCCC#N |  | inconclusive: 61.7 µM [rising, single point] |
| C=C[C@](C)(O)CC[C@@H]1[C@@]2(C)CCCC(C)(C)[C@@H]2CC[C@@]1(C)O | inconclusive: -35.3% |  |
| CC(C)(C)N(CCO)CCO |  | inactive |
| CCC(=O)OCCc1ccccc1 | inconclusive: -87.4% |  |
| CC(C)(O)c1ccccc1CC[C@@H](SCC1(CC(=O)O)CC1)c1cccc(/C=C/c2ccc3ccc(Cl)cc3n2)c1 |  | inactive |
| C=CCCC(=O)/C=C/C1C(C)=CCCC1(C)C (stereo not given) |  | inconclusive: 1.55 µM [rising, full curve, poor fit] |
| Cc1cc2c(cc1C(F)(F)F)N(C(=O)Nc1ccc(Oc3cccnc3C)nc1)CC2 |  | inconclusive: 55.8 µM [rising, partial curve, poor fit] |
| Nc1ccc(Cl)cc1Cl | inconclusive: 8.49% |  |
| Nc1ccc(S(=O)(=O)NC(=O)c2ccccc2)cc1 |  | inactive |
| CCCCC(CC)C(=O)O (stereo not given) | inconclusive: 2.18% |  |
| C[C@]12CCC(=O)C=C1CC[C@@H]1[C@@H]2C(=O)C[C@@]2(C)[C@H]1CC[C@]2(O)C(=O)CO |  | inconclusive: 54.9 µM [single point] |
| CCCCOc1ccc(C(=O)CCN2CCCCC2)cc1 |  | inactive |
| CCC(Cl)C(Cl)C(Cl)CC(Cl)C(Cl)C(C)Cl (stereo not given) | inconclusive: -36.2% |  |

| Compound | ratio activity, negative = inhibition | Potency |
| --- | --- | --- |
| CCOC(=O)/C=C(C)/C=C/C=C(C)/C=C/c1c(C)cc(OC)c(C)c1C |  | inconclusive: 26.6 µM [fluorescent] |
| O=C1C=CC(=O)N1 |  | inconclusive: 56.4 µM [cytotoxic] |
| CCOC(=O)C(C#N)=C(c1ccccc1)c1ccccc1 |  | inconclusive: 12.3 µM [inhibitor, full curve] |
| C[C@]12CC[C@H]3[C@@H](CCC4=CC(=O)CC[C@@]43C)[C@@H]1CC[C@@H]2C(=O)CO | inconclusive: 34.1% [activator] | inconclusive: 0.15 µM [fluorescent, partial curve, poor fit] |
| Cc1c(C(=O)O)cccc1[N+](=O)[O-] | inconclusive: -36.1% [at 80.4 µM] |  |
| CCC(C)C1N=C(C)C(C)S1 (stereo not given) |  | inactive |
| Cc1cccc(N(C)C(=S)Oc2ccc3ccccc3c2)c1 | inconclusive: -0.758% and inconclusive: -31.1% |  |
| CCCCCCCCOc1ccc(C(=O)c2ccccc2)c(O)c1 |  | inconclusive: 61.6 µM [rising, single point] |
| OC[C@]1(O)OC[C@@H](O)[C@H](O)[C@@H]1O |  | inactive |
| O=C1OC(=O)c2cccc3cccc1c23 |  | inactive |
| O=C(O)C1(C(=O)Nc2ccc(Cl)cc2Cl)CC1 |  | inconclusive: 54.9 µM |
| CCCCCCCC/C=C\CCCCCCCC(=O)NCc1ccc(O)c(OC)c1 |  | inconclusive: 29.8 µM [inhibitor] |
| CN1CCN(C2Cc3ccccc3Sc3ccc(Cl)cc32)CC1 (stereo not given) | inconclusive: -53.5% [inhibitor] |  |
| CC1(C)CC(=O)CC(C)(C)N1 |  | inactive |
| CC(C)[C@H]1CC[C@H](C)C[C@@H]1O | inconclusive: -1.37% [at 80.4 µM] |  |
| CC(=N\O)/C(C)=N/O | inconclusive: -1.44% |  |
| CC(C)OC=O |  | inconclusive: 58.4 µM [single point] |
| CCCCCCCCCCOC(=O)c1ccccc1C(=O)OCCCCCCCC |  | inconclusive: 61.6 µM [rising, single point] |
| CC(C)OC(=O)c1ccccc1 |  | inconclusive: 57.9 µM [falling, single point] |
